Whole data set: some 18,000 sequences, median “TetR repression strength (sort-seq, GFP reporter)” near 0.23, cut for the highest 2% near 0.68. Some of the results follow.

Consider 130 sequences from a collection of fitness landscapes (doi:10.1038/s41467-024-54723-y).

For this experiment, the target named is TetR (class B, Tn10) (UniProt P04483). The experiment in a line: TetR repression strength (sort-seq, GFP reporter) (relative to tetO2 = 1); higher = stronger repression. Particulars: E. coli. The essentials: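 Repression strength was calculated by subtracting the read-weighted mean bin from the top bin index plus one and dividing by the unaltered operator's value. The plasmid library was low-copy in E. coli SIG10-MAX, with eight randomized operator positions between a constitutive promoter and sfGFP and constitutive TetR. Cultures grew 5 h at 37 °C in LB containing 50 µg/mL chloramphenicol before 10^6 cells were sorted by FACS into 13 fluorescence bins, each sequenced on Illumina. Three independent transformations were averaged for members having ≥30 reads in all replicates and a CV ≤0.5.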
Chain of UniProt P04483 (P04483 whole entry): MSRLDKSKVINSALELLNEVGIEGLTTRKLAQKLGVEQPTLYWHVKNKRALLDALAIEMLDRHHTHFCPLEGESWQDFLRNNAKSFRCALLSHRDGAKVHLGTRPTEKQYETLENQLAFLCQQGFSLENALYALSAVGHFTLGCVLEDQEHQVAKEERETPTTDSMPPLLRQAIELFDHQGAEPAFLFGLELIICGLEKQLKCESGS
On to TCCCTGCAAGTGAGGGAGA, for which the TetR repression strength amounted to 0.237.

In turn, TCCCTCAAAGTTGTTGAGA came in with a TetR repression strength of 0.251.

TCCCTCCAAGTGGAGGAGA: the TetR repression strength was found to be 0.542.

TCCCGGGGAGTGCATGAGA had a TetR repression strength of 0.284.

The sequence TCCCAAGCAGTCCGAGAGA returned a TetR repression strength of 0.254.

TCCCCGGTAGTCTTCGAGA: the TetR repression strength was 0.494.

TCCCAGGGAGTTGAAGAGA gave a TetR repression strength of 0.409.

TCCCAGGTAGTCCGGGAGA displayed a TetR repression strength of 0.22.

In turn, TCCCTATGAGTTCGGGAGA came in with a TetR repression strength of 0.214.

Regarding TCCCGAGAAGTAGCGGAGA, the TetR repression strength is 0.241.

Consider TCCCATCTAGTGTAAGAGA, for which the TetR repression strength was 0.311.

As to TCCCCCTAAGTTACCGAGA, the TetR repression strength was 0.537.

For the sequence TCCCGCTTAGTCCGGGAGA, the TetR repression strength is 0.272.

Regarding TCCCCGTGAGTCACTGAGA, the TetR repression strength was determined as 0.0402.

In turn, TCCCGTTGAGTAAAGGAGA gave a TetR repression strength of 0.518.

For TCCCGGGAAGTAGCGGAGA, the TetR repression strength stood at 0.127.

In turn, TCCCAAGAAGTTGCGGAGA yielded a TetR repression strength of 0.21.

Take TCCCGAGAAGTCACAGAGA: the TetR repression strength turned out to be 0.215.

The sequence TCCCGTCGAGTTGGGGAGA gave a TetR repression strength of 0.0764.

Sequence TCCCGTGTAGTTGAGGAGA gave a TetR repression strength of 0.368.

For the sequence TCCCAGACAGTTTGGGAGA, the TetR repression strength was 0.203.

With TCCCTGGGAGTGTACGAGA, the TetR repression strength was found to be 0.204.

TCCCTGCAAGTGTCGGAGA yielded a TetR repression strength of 0.133.

Take TCCCGACCAGTGGATGAGA: the TetR repression strength came to 0.34.

The sequence TCCCCGTGAGTTTGAGAGA had a TetR repression strength of 0.0703.

As for TCCCTTCAAGTCTGGGAGA, the TetR repression strength was 0.172.

In turn, TCCCGCCAAGTGCCAGAGA yielded a TetR repression strength of 0.392.

Take TCCCAACTAGTGGTCGAGA: the TetR repression strength amounted to 0.175.

As for TCCCACGCAGTATTGGAGA, the TetR repression strength amounted to 0.34.

TCCCTATCAGTGATAGAGA showed a TetR repression strength of 1.

The sequence TCCCTTGGAGTTTATGAGA showed a TetR repression strength of 0.113.

Regarding TCCCTCGTAGTCTAAGAGA, the TetR repression strength came out at 0.142.

In turn, TCCCCTGTAGTGTCGGAGA came in with a TetR repression strength of 0.135.

In the case of TCCCCTCAAGTGTAGGAGA, the TetR repression strength turned out to be 0.128.

The sequence TCCCTCCAAGTCGACGAGA showed a TetR repression strength of 0.337.

TCCCTGTGAGTTTCCGAGA gave a TetR repression strength of 0.314.

In the case of TCCCCATGAGTGAAGGAGA, the TetR repression strength came to 0.0296.

Consider TCCCTGTTAGTAGGAGAGA, for which the TetR repression strength came to 0.312.

Take TCCCGGGGAGTTGGAGAGA: the TetR repression strength is 0.37.

TCCCACATAGTGTTCGAGA yielded a TetR repression strength of 0.358.

TCCCGGTCAGTTGGCGAGA registered a TetR repression strength of 0.185.

TCCCCCGGAGTAGAGGAGA: the TetR repression strength was 0.187.

On to TCCCTAGGAGTTGTTGAGA, for which the TetR repression strength was 0.189.

Sequence TCCCGGCAAGTCCTCGAGA came in with a TetR repression strength of 0.176.

TCCCACTCAGTGGGAGAGA came in with a TetR repression strength of 0.423.

TCCCGAGTAGTGAGCGAGA displayed a TetR repression strength of 0.141.

As for TCCCGCGCAGTGGAGGAGA, the TetR repression strength turned out to be 0.36.

Sequence TCCCGCGGAGTGGAGGAGA had a TetR repression strength of 0.231.

In turn, TCCCTTAAAGTGGTGGAGA showed a TetR repression strength of 0.179.

TCCCGAAAAGTATTAGAGA had a TetR repression strength of 0.368.

Take TCCCATTCAGTACTCGAGA: the TetR repression strength amounted to 0.232.

In the case of TCCCTTGCAGTTTTCGAGA, the TetR repression strength stood at 0.207.

For the sequence TCCCTTTCAGTGGCTGAGA, the TetR repression strength turned out to be 0.496.

TCCCCGCAAGTAGAAGAGA had a TetR repression strength of 0.207.

As for TCCCGAACAGTGGGAGAGA, the TetR repression strength turned out to be 0.231.

For the sequence TCCCCGCCAGTGGCTGAGA, the TetR repression strength is 0.359.

TCCCGGTAAGTGTGGGAGA registered a TetR repression strength of 0.302.

Turning to TCCCGAGTAGTGGAGGAGA, the TetR repression strength stood at 0.155.

Consider TCCCGGCTAGTTAGGGAGA, for which the TetR repression strength was found to be 0.177.

In the case of TCCCTGTTAGTGTGTGAGA, the TetR repression strength is 0.138.

As to TCCCTGGCAGTTACGGAGA, the TetR repression strength is 0.0762.

Sequence TCCCTTGCAGTAGCGGAGA returned a TetR repression strength of 0.178.

On to TCCCACCAAGTCTAGGAGA, for which the TetR repression strength worked out at 0.232.

Take TCCCATGGAGTGGGCGAGA: the TetR repression strength stood at 0.141.

TCCCGGGCAGTACTTGAGA returned a TetR repression strength of 0.29.

TCCCATCCAGTGGTCGAGA: the TetR repression strength stood at 0.205.

For TCCCGTCCAGTGGTTGAGA, the TetR repression strength was 0.131.

TCCCTTAAAGTGTTGGAGA returned a TetR repression strength of 0.334.

In turn, TCCCCCATAGTGCCAGAGA came in with a TetR repression strength of 0.453.

TCCCACTAAGTGGCTGAGA gave a TetR repression strength of 0.0969.

For the sequence TCCCGGCTAGTATTTGAGA, the TetR repression strength came to 0.12.

As for TCCCAATAAGTCCGGGAGA, the TetR repression strength is 0.0056.

As for TCCCTGGAAGTAGATGAGA, the TetR repression strength turned out to be 0.342.

With TCCCGGTGAGTGCGTGAGA, the TetR repression strength turned out to be 0.282.

Sequence TCCCCGCAAGTGGACGAGA registered a TetR repression strength of 0.218.

For the sequence TCCCGGCTAGTGCGTGAGA, the TetR repression strength was found to be 0.246.

As to TCCCTTTAAGTAGAAGAGA, the TetR repression strength was determined as 0.207.

TCCCCTGTAGTGGGAGAGA returned a TetR repression strength of 0.33.

In turn, TCCCTGACAGTTCCCGAGA had a TetR repression strength of 0.2.

On to TCCCAAATAGTAACTGAGA, for which the TetR repression strength worked out at 0.0655.

In turn, TCCCTCTAAGTTATAGAGA gave a TetR repression strength of 0.703.

TCCCATTGAGTGAGTGAGA: the TetR repression strength came out at 0.324.

TCCCGGTTAGTTGAGGAGA returned a TetR repression strength of 0.12.

For TCCCCGTTAGTCGAAGAGA, the TetR repression strength is 0.0179.

TCCCACCAAGTGGGGGAGA returned a TetR repression strength of 0.1.

Turning to TCCCAGCGAGTGCATGAGA, the TetR repression strength was determined as 0.104.

Sequence TCCCTTCTAGTACCTGAGA returned a TetR repression strength of 0.494.

For the sequence TCCCGGCCAGTGGGAGAGA, the TetR repression strength came out at 0.268.

In turn, TCCCTCAGAGTCGCGGAGA came in with a TetR repression strength of 0.279.

Sequence TCCCGACCAGTGAAGGAGA yielded a TetR repression strength of 0.276.

TCCCGCATAGTAACAGAGA gave a TetR repression strength of 0.432.

On to TCCCGCGAAGTGACTGAGA, for which the TetR repression strength was 0.319.

TCCCCGTAAGTGTCTGAGA yielded a TetR repression strength of 0.252.

In turn, TCCCTCACAGTACAAGAGA gave a TetR repression strength of 0.232.

For the sequence TCCCCTTCAGTGGTTGAGA, the TetR repression strength worked out at 0.217.

In the case of TCCCCGGTAGTGTTAGAGA, the TetR repression strength was found to be 0.154.

Turning to TCCCGGGTAGTAGGGGAGA, the TetR repression strength came out at 0.183.

Sequence TCCCCGCGAGTGTGGGAGA returned a TetR repression strength of 0.38.

In the case of TCCCCCTGAGTGTAGGAGA, the TetR repression strength is 0.155.

In turn, TCCCGGCGAGTAGAGGAGA gave a TetR repression strength of 0.248.

Take TCCCATCAAGTTGCGGAGA: the TetR repression strength worked out at 0.172.

In turn, TCCCTACGAGTGGACGAGA returned a TetR repression strength of 0.0565.

As for TCCCTTGGAGTTAGGGAGA, the TetR repression strength amounted to 0.2.

For TCCCGGATAGTCGCCGAGA, the TetR repression strength came out at 0.296.

In turn, TCCCGAATAGTGGCTGAGA registered a TetR repression strength of 0.267.

As to TCCCCATTAGTTTGAGAGA, the TetR repression strength stood at 0.512.

TCCCTATGAGTTCACGAGA registered a TetR repression strength of 0.459.

In turn, TCCCGCGTAGTCTAGGAGA gave a TetR repression strength of 0.462.

The sequence TCCCTCCTAGTCGCCGAGA registered a TetR repression strength of 0.511.

Sequence TCCCAGAAAGTTCAAGAGA yielded a TetR repression strength of 0.387.

TCCCCCCAAGTGGCGGAGA showed a TetR repression strength of 0.0427.

The sequence TCCCGTTCAGTGCATGAGA gave a TetR repression strength of 0.398.

Regarding TCCCGTGCAGTTCTTGAGA, the TetR repression strength worked out at 0.0764.

In the case of TCCCATTAAGTTTCTGAGA, the TetR repression strength amounted to 0.229.

The sequence TCCCGGGCAGTCTGCGAGA gave a TetR repression strength of 0.355.

Turning to TCCCGCCTAGTCTGCGAGA, the TetR repression strength was 0.194.

As for TCCCACAGAGTTCACGAGA, the TetR repression strength worked out at 0.328.

For the sequence TCCCTGTGAGTGTCTGAGA, the TetR repression strength was found to be 0.251.

Take TCCCGGTCAGTCAGGGAGA: the TetR repression strength is 0.226.

Turning to TCCCAGGCAGTGATGGAGA, the TetR repression strength was 0.181.

TCCCGTGGAGTAAAGGAGA returned a TetR repression strength of 0.242.

As to TCCCGCGTAGTGAACGAGA, the TetR repression strength was determined as 0.0889.

TCCCCACTAGTTAAGGAGA registered a TetR repression strength of 0.225.

TCCCTGACAGTCGTGGAGA came in with a TetR repression strength of 0.0295.

As for TCCCGAAGAGTTAGTGAGA, the TetR repression strength is 0.21.

Take TCCCGAACAGTGGTTGAGA: the TetR repression strength is 0.184.

Turning to TCCCGTCTAGTTAAGGAGA, the TetR repression strength was 0.811.

In turn, TCCCATTCAGTTGGAGAGA displayed a TetR repression strength of 0.262.

As for TCCCAATGAGTGTCAGAGA, the TetR repression strength is 0.213.

TCCCTGGAAGTCTTGGAGA showed a TetR repression strength of 0.197.
